# Assay results reported in the supplement of paper PMC3334620.
# In all, about 33,000 sequences were measured (“E-score (-0.5 to 0.5)”: median about -0.04, highest 2% from about 0.36 on). The list shows a part of the results.
# Target: T1, Hmlalpha2 (UniProt P0CY09)
# T1 sequence: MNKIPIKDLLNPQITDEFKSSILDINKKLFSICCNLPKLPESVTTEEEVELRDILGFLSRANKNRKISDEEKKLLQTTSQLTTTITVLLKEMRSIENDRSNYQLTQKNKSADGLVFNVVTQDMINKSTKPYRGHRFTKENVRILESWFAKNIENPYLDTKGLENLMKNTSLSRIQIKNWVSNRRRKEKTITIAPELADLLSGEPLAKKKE
# Assay: PBM E-score (8-mer binding enrichment) (E-score (-0.5 to 0.5)); higher = stronger / more preferred TF binding; most listed sequences are background and not binding sites
# Conditions: protein concentration: 200 nM; construct: GST-full length
# Method in brief: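 GST-tagged yeast TFs (full-length or DNA-binding domain) were made by PURExpress in vitro transcription/translation and applied at about 100-200 nM to universal all-10-mer Agilent arrays. The arrays were made double-stranded by primer extension, on fresh or once-stripped slides. Bound protein was detected with fluorescent anti-GST, and scans were normalised with masliner. Each ungapped eight-base word, pooled with its reverse complement, received an E-score (modified Wilcoxon-Mann-Whitney statistic) from the Universal PBM Analysis Suite.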
row,Sequence,PBM E-score
1,GTGTAGGA,0.275
2,GACGTAAC,0.143
3,ATTTATGA,0.067
4,ATCCTTTA,0.0247
5,GTGTATGA,0.262
6,ACGGTTAA,0.128
7,ATGATCGG,-0.0619
8,AGAGGTAT,0.157
9,CACGCGAA,0.127
10,CACAAGTG,0.0286
11,AATCTGCA,-0.0244
12,CGCTCCGC,-0.25
13,CCAGCACA,-0.115
14,GTAGTGAA,0.153
15,TAGGCTAA,-0.181
16,GAACAAAA,0.13
17,CACTATCA,-0.116
18,TCTTTGAA,0.037
19,CCCACATA,-0.128
20,ACCCAGGA,-0.0304
21,ATTTCTAG,0.0369
22,AACCAAAA,0.0962
23,CAGTTCAA,-0.0276
24,ATGACCTG,0.0892
25,AAGAAAAA,-0.0187

row,Sequence,PBM E-score
1,GCGCTGAA,-0.185
2,CGTTGCGA,0.0644
3,ACGCACCG,0.109
4,ATTACTGA,0.165
5,CCTCAATA,-0.132
6,TCCAAAGA,0.0194
7,CTACTGAG,-0.127
8,ACGCCCAC,-0.0157
9,GGACTACC,-0.268
10,AAGATGTG,0.0226
11,GGTTGTGA,0.0449
12,TTAGACAA,0.167
13,GGCGTCTA,-0.0133
14,TATCGTGA,-0.102
15,AAACACCT,0.0638
16,AGTTCCAT,0.0354
17,AGGTGTAC,0.175
18,GAGTACCA,0.0958
19,AAGGATGC,0.0116
20,CCTGCTAG,-0.14
21,AGGCATTC,-0.265
22,ACATCTCG,0.104
23,CTGATCGC,-0.0378
24,AATGAGTG,0.0154
25,ATGCGGTC,-0.001

row,Sequence,PBM E-score
1,AAGAATCC,-0.0955
2,CCCGCCCC,-0.292
3,ATCACTAA,0.105
4,CCATGCGA,-0.0215
5,TAGCTTAA,0.0077
6,ACTATGCA,0.0534
7,GAAGCGCC,-0.112
8,TAATATAA,0.291
9,GCTGACTA,-0.202
10,GACGCAAA,-0.109
11,AGAACCTA,-0.137
12,ATGTCTCG,-0.118
13,AAGTTGAA,0.17
14,CATTTGCA,0.0835
15,CCATACTC,-0.182
16,AGTTCAAG,0.17
17,GCCTATGA,-0.147
18,ACCATCTA,-0.0692
19,AATCCCTC,-0.0909
20,AGCGCGCA,0.0691
21,CGAGCTTC,0.0383
22,AGCGGCAA,-0.196
23,AATTGAAC,0.131
24,GAGCCCCA,-0.267
25,CCATACAG,-0.178

row,Sequence,PBM E-score
1,ACCCCTGG,-0.31
2,ACTATAGA,0.00945
3,GTCACGCA,-0.0567
4,CACCACTC,-0.146
5,CAGCAAGC,-0.251
6,ACTCACTC,-0.105
7,ACCACCGG,-0.224
8,GCCATAAA,-0.175
9,AATCCAAT,0.0439
10,GGTAAACC,-0.0161
11,GTTATAAC,0.25
12,ATAACTCG,0.109
13,CCCAAGAA,-0.112
14,TAAGGCGA,-0.142
15,ACCTTACT,0.118
16,GATGGATA,-0.263
17,AATGCGAA,0.0749
18,AACAGAGT,0.172
19,GTACGTAA,0.34
20,AAACAATA,0.317
21,GTCTCGAA,-0.0417
22,AGTCTCTC,-0.306
23,CAGCAAAG,-0.173
24,TATCTTGA,0.0127
25,ATTGGCAG,-0.167

row,Sequence,PBM E-score
1,ACGCTGCC,-0.108
2,GACTAGAC,-0.00798
3,CAAACACG,0.314
4,GCCGTTCC,-0.188
5,TGCGCTAA,0.0656
6,GAAACCAC,-0.102
7,GTTACGAA,0.222
8,ACGTGCAA,0.123
9,CAGCCCGC,-0.289
10,GGCTCCTA,-0.211
11,TACAAGGA,0.291
12,AAATTCTT,0.0442
13,CTTCACCC,-0.0454
14,ACCTCCCG,-0.181
15,TATCTGCA,0.0142
16,CGATGGCG,-0.15
17,CAGGGGAC,-0.183
18,AATCCGGT,-0.0356
19,CAAGAGCC,-0.141
20,CTTGAACA,0.213
21,AACGTCGC,0.063
22,AAGCCGGA,0.097
23,GCTAATCC,-0.048
24,CACTGGGC,-0.126
25,GGTGCATA,-0.156

row,Sequence,PBM E-score
1,CTGTAAGC,-0.0257
2,CTGTGGAA,-0.114
3,CAAGATCG,0.063
4,GCGGACCA,-0.0719
5,TTGAGAAA,0.125
6,ATGTAATA,0.48
7,CTTTCACC,-0.118
8,TAATGCGA,0.232
9,AGTACACC,0.115
10,CGCAGCTA,-0.0436
11,ATATACCG,0.107
12,CTGCCAGA,-0.232
13,ACTCCACT,-0.192
14,ACAGCTTG,0.192
15,ACCGTCCG,-0.401
16,GACACTCA,-0.059
17,AATTTTCA,0.0373
18,CCACTCTA,-0.0812
19,AAATATTT,0.0866
20,CTGCTGGC,-0.294
21,CACACGCA,0.19
22,CACACCGG,-0.0415
23,GGTCCTGA,-0.315
24,CAGTGGTC,-0.216
25,CCGGTGCG,-0.115

row,Sequence,PBM E-score
1,GGTAACAC,0.273
2,CCTGGTAG,-0.298
3,CAGTCACG,-0.0541
4,CCTTATAC,0.0447
5,CCCGAACC,-0.267
6,CAAACCAG,-0.0168
7,CCTAAGCC,-0.252
8,CGTGTATA,0.452
9,ATAGCGCA,-0.0333
10,AGTGAATG,0.143
11,AAGCGAAG,-0.0904
12,ATGTCTTG,0.0125
13,ACAATCAT,0.195
14,GCGCAAGA,-0.0432
15,TACGATCA,-0.0609
16,CCCTGAAC,0.159
17,GACTCTTA,-0.158
18,CTCTGAGA,-0.188
19,GGCGGAAC,-0.173
20,AGGCGTCC,-0.171
21,CCATGGCC,-0.358
22,CATCCAGC,0.00515
